Test results: PubChem BioAssay AID624296 (National Center for Advancing Translational Sciences (NCATS), 2012)
Where “and” joins values, the source holds several entries; their conditions need not be identical. Equal entries are not always repeated. In all, about 350,000 compounds went through this assay and about 9,900 (2.8%) were called active. Inconclusive means that the source gave no clear call. Such entries were picked first, then a sample of the others. Calls come from the whole dose curve; as a rule, active = well fitted activation curve with a large enough effect; inconclusive = small, poorly fitted or top-dose-only effect; inactive = no such curve, though single readings can be large or run the other way. Potencies of inconclusive entries are doubtful fits and often do not repeat.
Potency is the fitted concentration of half-maximal effect; tags give direction and shape of the fitted curve.

Test: A quantitative high throughput screen for small molecules that induce DNA re-replication in MCF 10a normal breast cells. For activity, positive = re-replication: % of control where 0% means no effect. Note: nearly all actives have a fitted effect of over 50% in size.
Conditions: MCF 10A DNA re-replication, Hoechst nuclear intensity, 48 h; activity, positive = re-replication: at 46.1 µM (top of the series)
With `COc1ccc(-c2noc(C3CCCN(C(=O)Nc4ccccc4F)C3)n2)cc1` (centres undefined) the “activity, positive = re-replication” value was inactive: 1.15%.
In the case of `COc1ccc(C(=O)c2coc3ccc(O)c(CN4CCCC4)c23)cc1`, the “activity, positive = re-replication” value is reported as inactive: 6.5%.
With `O=S1(=O)[C@H]2C[C@H](CO)O[C@@]2(CO)CN1Cc1ccc(-c2cccc(Cl)c2)cc1` the Potency was inconclusive: 29.1 µM [activator, partial curve, poor fit].
For `Cc1c(C)c2c(c(C)c1O)CCC(C)(C(=O)O)O2` (centres undefined), the “activity, positive = re-replication” value was inactive: -20.2%.
With `C[C@H]1COC(=O)[C@@H](Cc2ccc(F)cc2)C/C=C\C[C@H](CC(=O)N(CCO)Cc2ccccc2)C(=O)N1` the “activity, positive = re-replication” value was inactive: -0.616%.
For `N#Cc1c(N)n(CCc2ccc(F)cc2)c2nc3ccccc3nc12`, the Potency was inconclusive: 2.59 µM [activator, full curve].
For `O=C(N/N=C/c1ccc(N2CCOCC2)s1)c1ccc(NS(=O)(=O)c2cccs2)cc1`, the Potency was inconclusive: 29.1 µM [activator, single point].
In the case of `Cc1c(/C=N/NC(=O)C2(O)c3ccccc3-c3ccccc32)cnn1C`, the “activity, positive = re-replication” value is reported as inactive: 14.5%.
In the case of `CC(C)(C)c1ccc(S(=O)(=O)NCc2ccc(C(=O)N3CCCC3)cc2)cc1`, the Potency is reported as inconclusive: 4.61 µM [activator, full curve].
With `Cc1cc(C)c2nc(Cl)c(Cl)nc2c1` the “activity, positive = re-replication” value was inactive: -1.26%.
With `S=C1NCN(Cc2ccco2)CN1c1cccc2ccccc12` the Potency was inconclusive: 20.6 µM [activator, partial curve, poor fit].
In the case of `O=C(COC(=O)Cn1c(C(F)(F)F)nc2ccccc21)Nc1ccc2c(c1)OCCO2`, the Potency is reported as inconclusive: 2.59 µM [activator, single point].
In the case of `Cc1cccc(C)c1OC(=O)CCN1C(=O)C2C3C=CC(C4CC34)C2C1=O` (centres undefined), the “activity, positive = re-replication” value is reported as inactive: 7.15%.
For `COc1cccc(/C=C/C(=O)OCC(=O)NCCC2=CCCCC2)c1`, the Potency was inconclusive: 18.4 µM [activator, single point].
With `COCc1cc(C)nc(SCC(=O)Nc2cc(C(F)(F)F)ccc2N2CCOCC2)c1C#N` the Potency was inconclusive: 1.64 µM [activator, partial curve, poor fit].
For `CCn1c(=N)n(CC(O)c2ccco2)c2ccccc21` (centres undefined), the Potency was inconclusive: 18.4 µM [activator, single point].
With `O=[N+]([O-])c1ccc(NN=Cc2ccc(O)cc2O)nc1` the Potency was inconclusive: 29.1 µM [activator, single point].
In the case of `COC(=O)/C(=C1\Oc2ccc(C(C)(C)C)cc2S1)C(F)(F)F`, the Potency is reported as inconclusive: 4.11 µM [activator, single point].
For `CC[C@H](C)C(=O)O[C@H]1C[C@@H](C)C=C2C=C[C@H](C)[C@H](CC[C@@H]3C[C@@H](O)CC(=O)O3)[C@H]21`, the Potency was inconclusive: 16.8 µM [activator, partial curve, poor fit] and inconclusive: 731 nM [activator, full curve].
In the case of `Cc1ccccc1-n1nnnc1SCC(=O)c1c(N)n(C2CC2)c(=O)[nH]c1=O`, the “activity, positive = re-replication” value is reported as inactive: 0.377%.
With `O=C(N=C1SC2CS(=O)(=O)CC2N1Cc1ccccc1Cl)C1CCCO1` (centres undefined) the “activity, positive = re-replication” value was inactive: 6.47%.
In the case of `CN(Cc1ccccc1)C(=O)c1[nH]cnc1C(=O)N[C@@H](Cc1ccccc1)C(=O)OCc1ccccc1`, the Potency is reported as inconclusive: 18.4 µM [activator, single point].
With `Cc1ccc2nc(CSc3nnc(Nc4ccccc4F)s3)cc(=O)n2c1` the Potency was inconclusive: 32.6 µM [activator, partial curve, poor fit].
In the case of `CC(=O)O[C@H]1C2OC(=O)C(C)=C2[C@@H]2OC(=O)[C@]3(CCC4OC41C)OC23` (some centres undefined), the Potency is reported as inconclusive: 29.1 µM [activator, single point].
For `CCOC(=O)C1=C(COC(=O)CNC(=O)c2ccc(C)cc2)NC(=O)NC1C` (centres undefined), the Potency was inconclusive: 6.51 µM [activator, single point].
For `COc1ccc(-c2cn[nH]c2-c2ccc(OCc3ccccc3F)cc2O)cc1OC`, the Potency was inconclusive: 18.4 µM [activator, single point].
For `COCC1CCN(C(=O)c2ccc3oc(Cc4ccc(Cl)cc4)nc3c2)C1` (centres undefined), the “activity, positive = re-replication” value was inactive: 22.3%.
With `COC(=O)c1nc(N)sc1-c1ccc(OC)cc1` the Potency was inconclusive: 10 µM [activator, partial curve, poor fit].
For `Cc1cccc(Cn2nnc3c2C(=O)c2ccccc2C3=O)c1`, the “activity, positive = re-replication” value was inactive: 13.8%.
For `CCCNC(=O)Cn1nc(C(F)(F)F)c2c1CCCC2`, the Potency was inconclusive: 16.4 µM [activator, single point].
In the case of `N#Cc1c(NC(=O)c2ccccc2)sc2c1CCC2`, the Potency is reported as inconclusive: 14.1 µM [activator, partial curve, poor fit].
In the case of `Clc1ccc(OCCn2c(-c3ccco3)nc3ccccc32)cc1`, the Potency is reported as inconclusive: 20.6 µM [activator, single point].
For `CC(C)C(=O)NC(=S)N1CCc2ccccc21`, the “activity, positive = re-replication” value was inactive: -2.78%.
With `Fc1ccc(Nc2nnc(C(F)(F)F)s2)cc1` the “activity, positive = re-replication” value was inactive: 4.01%.
For `CC(C)NC(=O)N(C)C[C@H]1Oc2ccc(NS(=O)(=O)c3ccccc3)cc2C(=O)N([C@H](C)CO)C[C@@H]1C`, the “activity, positive = re-replication” value was inactive: 3.18%.
In the case of `COc1ccccc1C(=O)NCC(=O)OCC(=O)Nc1nnc(-c2ccccc2)o1`, the “activity, positive = re-replication” value is reported as inactive: -0.4%.
For `CCN1CCCC1CN(Cc1cc2cc(C)cc(C)c2[nH]c1=O)C(=O)Nc1ccccc1OC` (centres undefined), the “activity, positive = re-replication” value was inactive: -1.52%.
For `Cc1ccc2c(CN3CCN(S(=O)(=O)/C=C/c4ccccc4)CC3)cc(=O)oc2c1`, the “activity, positive = re-replication” value was inactive: -2.78%.
For `CN1CCN(C(=O)c2ccc(-c3ccc(Br)cc3)o2)CC1`, the Potency was inconclusive: 16.4 µM [activator, single point].
With `Cc1nc2cc(NS(=O)(=O)c3ccc(Br)cc3)ccc2n1C` the “activity, positive = re-replication” value was inactive: 0.468%.
With `Cc1nn(Cc2cccc(C(=O)NC(C)c3ccc(C(C)(C)C)cc3)c2)c(C)c1[N+](=O)[O-]` (centres undefined) the Potency was inconclusive: 29.1 µM [activator, single point].
For `Cc1cc(N2CCN(c3ncccn3)CC2)nc2c(C)cccc12`, the Potency was inconclusive: 13 µM [activator, partial curve].
With `N=c1c(S(=O)(=O)c2ccc(Br)cc2)cc2c(=O)n3ccccc3nc2n1C1CCCC1` the Potency was inconclusive: 0.651 µM [activator, full curve, poor fit].
For `CCOC(=O)c1nc(C)nc(Sc2n[nH]c(-c3cc(C(F)(F)F)cc(C(F)(F)F)c3)n2)c1C`, the Potency was active: 16.4 µM.
In the case of `Cc1cc(C(=O)NN=C2CCCCCC2)c(C)o1`, the Potency is reported as inconclusive: 32.6 µM [activator, partial curve, poor fit].
With `C/C(=N\NC(=O)c1ccoc1C)c1ccccc1O` the Potency was active: 7.31 µM.
In the case of `CCCCc1nc(NCC2CCCO2)c(C#N)c2c1COC(C)(C)C2` (centres undefined), the Potency is reported as inconclusive: 23.1 µM [activator, single point].
With `Cc1cc(-c2cc(-c3ccc(Cl)cc3)on2)nc(NC2CCCC2)n1` the Potency was inconclusive: 0.291 µM [activator, partial curve, poor fit].
For `CC(=O)Nc1ccc(C=C(C(C)=O)C(C)=O)cc1`, the Potency was inconclusive: 20.6 µM [activator, single point].
For `C[C@@H](C(=O)NCc1ccco1)N1C(=O)N2CCc3c([nH]c4ccccc34)[C@@]2(C)C1=O`, the Potency was inconclusive: 0.0046 µM [activator, full curve, poor fit].
In the case of `CCC1CCc2sc(C(=O)NCC(c3ccccc3OC)N3CCCC3)cc2C1` (centres undefined), the Potency is reported as inconclusive: 23.1 µM [activator, single point].
With `O=C(NCCN1CCCC1)c1ccc(Cl)cc1Cl` the Potency was inconclusive: 32.6 µM [activator, partial curve, poor fit].
In the case of `COc1ccc(N(CC(=O)Nc2cc(C)ccc2OC)S(=O)(=O)c2c(C)noc2C)cc1`, the Potency is reported as inconclusive: 20.6 µM [activator, partial curve, poor fit].
For `Cn1c(SCc2n[nH]c(=S)o2)nnc1-c1ccccc1`, the “activity, positive = re-replication” value was inactive: 6.06%.
With `S=c1[nH]nc(Cc2ccccc2)n1-c1cccc2ccccc12` the “activity, positive = re-replication” value was inactive: -29.2%.
For `Cc1ccc(C(=O)Nc2ccccc2[N+](=O)[O-])cc1S(=O)(=O)N1CCOCC1`, the Potency was inconclusive: 29.1 µM [activator, single point].
With `O=C(COCc1cc(-c2ccc3c(c2)OCO3)on1)N1CCN(c2cccc(C(F)(F)F)c2)CC1` the Potency was inconclusive: 16.4 µM [activator, partial curve, poor fit].
With `Cc1cccc(-n2nnnc2SCC(=O)NCC2(N3CCOCC3)CCCCC2)c1C` the Potency was inconclusive: 29.1 µM [activator, single point].
In the case of `CC(=O)N1c2ccc(S(=O)(=O)N3CCCCC3)cc2CC1C(=O)NCc1ccc(N(C)C)cc1` (centres undefined), the Potency is reported as inconclusive: 5.8 µM [activator, single point].
With `CCN(C(=O)Cc1cccs1)c1nnc(-c2cc(OC)c(OC)c(OC)c2)s1` the “activity, positive = re-replication” value was inactive: 3.86%.
With `CCOC(=O)C1(CCCc2ccccc2)CCN(Cc2nccn2CC)CC1` the Potency was inconclusive: 29.1 µM [activator, single point].
With `CCn1cc(C(=O)NCc2ccco2)c2cc(OC)c(OC)cc2c1=O` the “activity, positive = re-replication” value was inactive: 0.0325%.
With `CCOC(=O)c1cc2occc2n1CC(=O)NCCOC` the “activity, positive = re-replication” value was inactive: 1.9%.
With `COc1ccc(-c2nc(SCC(=O)NCc3ccco3)c(-c3ccccc3)[nH]2)cc1OC` the Potency was active: 20.6 µM.
In the case of `O=C(NNC(=O)C1CCN(S(=O)(=O)c2c(Cl)cccc2Cl)CC1)c1ccccc1O`, the Potency is reported as inconclusive: 25.9 µM [activator, single point].
For `O=C(Cn1cnc2c(OCc3ccccc3)ncnc21)NCc1ccccn1`, the “activity, positive = re-replication” value was inactive: 3.31%.
In the case of `COc1cccc(N2CCN(CC(=O)Nc3nnc(-c4ccccc4)s3)CC2)c1`, the Potency is reported as inconclusive: 16.4 µM [activator, partial curve].
In the case of `O=C(Cc1ccccc1)NC(=S)Nc1ccc(OC(F)F)cc1`, the “activity, positive = re-replication” value is reported as inactive: -5.93%.
For `Cc1noc(/C=C/N(C)C)c1S(=O)(=O)N1CCCC(C(=O)NCc2ccccc2Cl)C1` (centres undefined), the Potency was inconclusive: 23.1 µM [activator, single point].
